Test results reported in the supplement of paper PMC8728848.
The other results are listed elsewhere or left out.

Assays:
Test in all cases: glycan array binding signal (z-score within array); higher = stronger binding
Settings in all cases: glycan notation: IUPAC condensed, linker removed
[1] = target: Neu5Ac(a2-3)Gal(b1-3)[Neu5Ac(a2-6)]GlcNAc(b1-3)[Fuc(a1-3)[Gal(b1-4)]GlcNAc(b1-6)]Gal(b1-4)Glc
How it was run: (§1)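 The binding signal is a Z-score computed within each array. Data were drawn from 3228 arrays in the Consortium for Functional Glycomics database, restricted to those with a known protein sequence. Scores were averaged over arrays of the same protein sequence at different concentrations or buffers, and over linkers, and negative values can be taken as non-binding.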

[2] = target: Neu5Ac(a2-3)Gal(b1-3)]Neu5Ac(a2-3)Gal(b1-4)]GlcNAc
How it was run: as §1

Neu5Ac(a2-3)Gal(b1-4)Glc = target: Neu5Ac(a2-3)Gal(b1-4)Glc
How it was run: as §1

[3] = target: Neu5Ac(a2-3)Gal(b1-4)GlcNAc
How it was run: as §1

[4] = target: Neu5Ac(a2-3)Gal(b1-4)GlcNAc(b1-2)Man
How it was run: as §1

[5] = target: Neu5Ac(a2-3)Gal(b1-4)GlcNAc(b1-2)Man(a1-3)[GlcNAc(b1-4)][Neu5Ac(a2-3)Gal(b1-4)GlcNAc(b1-2)Man(a1-6)]Man(b1-4)GlcNAc(b1-4)GlcNAc
How it was run: as §1

[6] = target: Neu5Ac(a2-3)Gal(b1-4)GlcNAc(b1-2)Man(a1-3)[Neu5Ac(a2-3)Gal(b1-4)GlcNAc(b1-2)Man(a1-6)]Man(b1-4)GlcNAc(b1-4)GlcNAc
How it was run: as §1

[7] = target: Neu5Ac(a2-3)Gal(b1-4)GlcNAc(b1-2)Man(a1-3)[Neu5Ac(a2-3)Gal(b1-4)GlcNAc(b1-2)Man(a1-6)]Man(b1-4)GlcNAc(b1-4)[Fuc(a1-6)]GlcNAc
How it was run: as §1

[8] = target: Neu5Ac(a2-3)Gal(b1-4)GlcNAc(b1-2)Man(a1-3)[Neu5Ac(a2-6)Gal(b1-4)GlcNAc(b1-2)Man(a1-6)]Man(b1-4)GlcNAc(b1-4)GlcNAc
How it was run: as §1

[9] = target: Neu5Ac(a2-3)Gal(b1-4)GlcNAc(b1-2)[Neu5Ac(a2-3)Gal(b1-4)GlcNAc(b1-4)]Man(a1-3)[GlcNAc(b1-4)][Neu5Ac(a2-3)Gal(b1-4)GlcNAc(b1-2)[Neu5Ac(a2-3)Gal(b1-4)GlcNAc(b1-6)]Man(a1-6)]Man(b1-4)GlcNAc(b1-4)GlcNAc
How it was run: as §1

[10] = target: Neu5Ac(a2-3)Gal(b1-4)GlcNAc(b1-2)[Neu5Ac(a2-3)Gal(b1-4)GlcNAc(b1-4)]Man(a1-3)[GlcNAc(b1-4)][Neu5Ac(a2-3)Gal(b1-4)GlcNAc(b1-4)Man(a1-6)]Man(b1-4)GlcNAc(b1-4)GlcNAc
How it was run: as §1

[11] = target: Neu5Ac(a2-3)Gal(b1-4)GlcNAc(b1-2)[Neu5Ac(a2-3)Gal(b1-4)GlcNAc(b1-6)]Man(a1-6)[Neu5Ac(a2-3)Gal(b1-4)GlcNAc(b1-2)Man(a1-3)][GlcNAc(b1-4)]Man(b1-4)GlcNAc(b1-4)GlcNAc
How it was run: as §1

[12] = target: Neu5Ac(a2-3)Gal(b1-4)GlcNAc(b1-3)Gal
How it was run: as §1

[13] = target: Neu5Ac(a2-3)Gal(b1-4)GlcNAc(b1-3)Gal(b1-3)GlcNAc
How it was run: as §1

[14] = target: Neu5Ac(a2-3)Gal(b1-4)GlcNAc(b1-3)Gal(b1-4)GlcNAc
How it was run: as §1

[15] = target: Neu5Ac(a2-3)Gal(b1-4)GlcNAc(b1-3)Gal(b1-4)GlcNAc(b1-2)Man(a1-3)[Neu5Ac(a2-3)Gal(b1-4)GlcNAc(b1-3)Gal(b1-4)GlcNAc(b1-2)Man(a1-6)]Man(b1-4)GlcNAc(b1-4)GlcNAc
How it was run: as §1

[16] = target: Neu5Ac(a2-3)Gal(b1-4)GlcNAc(b1-3)Gal(b1-4)GlcNAc(b1-3)Gal(b1-4)GlcNAc
How it was run: as §1

[17] = target: Neu5Ac(a2-3)Gal(b1-4)GlcNAc(b1-3)Gal(b1-4)GlcNAc(b1-3)Gal(b1-4)GlcNAc(b1-2)Man(a1-3)[Neu5Ac(a2-3)Gal(b1-4)GlcNAc(b1-3)Gal(b1-4)GlcNAc(b1-3)Gal(b1-4)GlcNAc(b1-2)Man(a1-6)]GalNAc
How it was run: as §1

[18] = target: Neu5Ac(a2-3)Gal(b1-4)GlcNAc(b1-3)Gal(b1-4)GlcNAc(b1-3)GalNAc
How it was run: as §1

[19] = target: Neu5Ac(a2-3)Gal(b1-4)GlcNAc(b1-3)Gal(b1-4)GlcNAc(b1-3)[Neu5Ac(a2-3)Gal(b1-4)GlcNAc(b1-3)Gal(b1-4)GlcNAc(b1-6)]GalNAc
How it was run: as §1

[20] = target: Neu5Ac(a2-3)Gal(b1-4)GlcNAc(b1-3)Gal(b1-4)GlcNAc(b1-6)[Gal(b1-3)]GalNAc
How it was run: as §1

[21] = target: Neu5Ac(a2-3)Gal(b1-4)GlcNAc(b1-3)Gal(b1-4)[Fuc(a1-3)]GlcNAc
How it was run: as §1

[22] = target: Neu5Ac(a2-3)Gal(b1-4)GlcNAc(b1-3)GalNAc
How it was run: as §1

[23] = target: Neu5Ac(a2-3)Gal(b1-4)GlcNAc(b1-3)[Neu5Ac(a2-3)Gal(b1-4)GlcNAc(b1-6)]GalNAc
How it was run: as §1

[24] = target: Neu5Ac(a2-3)Gal(b1-4)GlcNAc(b1-6)GalNAc
How it was run: as §1

[25] = target: Neu5Ac(a2-3)Gal(b1-4)GlcNAc(b1-6)[Gal(b1-3)]GalNAc
How it was run: as §1

[26] = target: Neu5Ac(a2-3)Gal(b1-4)GlcNAc(b1-6)[Neu5Ac(a2-3)Gal(b1-3)]GalNAc
How it was run: as §1

[27] = target: Neu5Ac(a2-3)Gal(b1-4)GlcNAc6S
How it was run: as §1

[28] = target: Neu5Ac(a2-3)Gal(b1-4)[Fuc(a1-3)]GlcNAc
How it was run: as §1

[29] = target: Neu5Ac(a2-3)Gal(b1-4)[Fuc(a1-3)]GlcNAc(b1-2)Man
How it was run: as §1

[30] = target: Neu5Ac(a2-3)Gal(b1-4)[Fuc(a1-3)]GlcNAc(b1-3)Gal
How it was run: as §1

[31] = target: Neu5Ac(a2-3)Gal(b1-4)[Fuc(a1-3)]GlcNAc(b1-3)Gal(b1-4)GlcNAc
How it was run: as §1

[32] = target: Neu5Ac(a2-3)Gal(b1-4)[Fuc(a1-3)]GlcNAc(b1-3)Gal(b1-4)[Fuc(a1-3)]GlcNAc(b1-3)Gal(b1-4)[Fuc(a1-3)]GlcNAc
How it was run: as §1

[33] = target: Neu5Ac(a2-3)Gal(b1-4)[Fuc(a1-3)]GlcNAc(b1-3)GalNAc
How it was run: as §1

[34] = target: Neu5Ac(a2-3)Gal(b1-4)[Fuc(a1-3)]GlcNAc(b1-6)[Gal(b1-3)]GalNAc
How it was run: as §1

[35] = target: Neu5Ac(a2-3)Gal(b1-4)[Fuc(a1-3)]GlcNAc(b1-6)[Neu5Ac(a2-3)Gal(b1-3)]GalNAc
How it was run: as §1

[36] = target: Neu5Ac(a2-3)Gal(b1-4)[Fuc(a1-3)]GlcNAc6S
How it was run: as §1

[37] = target: Neu5Ac(a2-3)Gal6S(b1-4)GlcNAc
How it was run: as §1

B1: DC-ASGPR S+GEE (Homo sapiens) (protein)
chain: MTRTYENFQYLENKVKVQGFKNGPLPLQSLLQRLRSGPCHLLLSLGLGLLLLVIICVVGFQNSKFQRDLVTLRTDFSNFTSNTVAEIQALTSQGSSLEETIASLKAEVEGFKQERQAVHSEMLLRVQQLVQDLKKLTCQVATINNNGEEASTEGTCCPVNWVEHQDSCYWFSHSGMSWAEAEKYCQLKNAHLVVINSREEQNFVQKYLGSAYTWMGLSDPEGAWKWVDGTDYATGFQNWKPGQPDDWQGHGLGGGEDCAHFHPDGRWNDDVCQRPYHWVCEAGLGQTSQESH
glycan array binding signal (z-score) [1]: -0.331
glycan array binding signal (z-score) [2]: -0.01
glycan array binding signal (z-score) (Neu5Ac(a2-3)Gal(b1-4)Glc): -0.348
glycan array binding signal (z-score) [3]: -0.348
glycan array binding signal (z-score) [4]: -0.093
glycan array binding signal (z-score) [5]: -0.288
glycan array binding signal (z-score) [6]: -0.317
glycan array binding signal (z-score) [7]: -0.323
glycan array binding signal (z-score) [8]: -0.297
glycan array binding signal (z-score) [9]: -0.222
glycan array binding signal (z-score) [10]: -0.253
glycan array binding signal (z-score) [11]: -0.308
glycan array binding signal (z-score) [12]: -0.325
glycan array binding signal (z-score) [13]: -0.307
glycan array binding signal (z-score) [14]: -0.415
glycan array binding signal (z-score) [15]: -0.646
glycan array binding signal (z-score) [16]: -0.301
glycan array binding signal (z-score) [17]: -0.17
glycan array binding signal (z-score) [18]: -0.28
glycan array binding signal (z-score) [19]: -0.38
glycan array binding signal (z-score) [20]: -0.394
glycan array binding signal (z-score) [21]: -0.369
glycan array binding signal (z-score) [22]: 0.236
glycan array binding signal (z-score) [23]: -0.482
glycan array binding signal (z-score) [24]: 4.38
glycan array binding signal (z-score) [25]: -0.352
glycan array binding signal (z-score) [26]: -0.271
glycan array binding signal (z-score) [27]: -0.333
glycan array binding signal (z-score) [28]: -0.32
glycan array binding signal (z-score) [29]: -0.291
glycan array binding signal (z-score) [30]: -0.389
glycan array binding signal (z-score) [31]: -0.326
glycan array binding signal (z-score) [32]: -0.291
glycan array binding signal (z-score) [33]: -0.143
glycan array binding signal (z-score) [34]: -0.338
glycan array binding signal (z-score) [35]: -0.265
glycan array binding signal (z-score) [36]: -0.352
glycan array binding signal (z-score) [37]: -0.32
